Measurements reported in PubChem BioAssay AID1645882 (National Center for Advancing Translational Sciences (NCATS), 2021).
Out of some 16,000 compounds screened, about 120 (0.75%) were called active. Roughly 4% stayed inconclusive and do not appear here. The call rests on the fitted dose curve; in most records, active means well fitted inhibition curve with a large enough effect; inconclusive means small, poorly fitted or top-dose-only effect; inactive means no such curve, though single readings can be large or run the other way. This is one part of the list. Where a SMILES comes first, the peptide text is derived from it. [ ]: non-standard residue; d: D form.

What follows are compounds tested against Rap guanine nucleotide exchange factor 3 (Homo sapiens) (UniProt O95398) (assay: Validation qHTS for antagonist of cAMP-regulated guanine nucleotide exchange factor 3 (EPAC1)). Conditions: EPAC1 Rap1B-BODIPY-GDP exchange, fluorescence; series mostly up to 150 µM; activity change, negative = inhibition: at the top concentration.
UniProt O95398, sequence (O95398 whole entry, looked up): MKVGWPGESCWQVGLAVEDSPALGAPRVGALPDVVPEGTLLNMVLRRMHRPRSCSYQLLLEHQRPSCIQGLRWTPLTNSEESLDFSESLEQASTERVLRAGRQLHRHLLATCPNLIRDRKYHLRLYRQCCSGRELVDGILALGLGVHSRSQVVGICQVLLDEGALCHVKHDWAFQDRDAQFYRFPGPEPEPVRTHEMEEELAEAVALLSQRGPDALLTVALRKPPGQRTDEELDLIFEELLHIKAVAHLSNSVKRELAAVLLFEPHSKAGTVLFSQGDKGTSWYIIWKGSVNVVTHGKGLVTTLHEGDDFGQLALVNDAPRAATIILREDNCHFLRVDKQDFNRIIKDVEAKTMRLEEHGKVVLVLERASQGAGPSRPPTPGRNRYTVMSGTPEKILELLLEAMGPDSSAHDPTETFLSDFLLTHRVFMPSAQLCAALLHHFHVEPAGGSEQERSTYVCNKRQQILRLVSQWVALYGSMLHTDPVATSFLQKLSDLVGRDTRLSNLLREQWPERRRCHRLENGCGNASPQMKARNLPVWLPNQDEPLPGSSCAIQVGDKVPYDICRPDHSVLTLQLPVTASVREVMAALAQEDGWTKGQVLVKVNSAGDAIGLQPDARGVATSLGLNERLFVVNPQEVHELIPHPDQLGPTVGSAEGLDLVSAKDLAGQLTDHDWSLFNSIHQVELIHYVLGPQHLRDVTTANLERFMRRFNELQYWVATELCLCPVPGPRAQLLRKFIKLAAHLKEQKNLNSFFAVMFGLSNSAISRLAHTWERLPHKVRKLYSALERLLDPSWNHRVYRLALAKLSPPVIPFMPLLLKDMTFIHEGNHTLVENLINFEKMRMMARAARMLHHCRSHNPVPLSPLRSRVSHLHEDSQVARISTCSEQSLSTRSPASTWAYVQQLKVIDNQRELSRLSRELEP
Outline: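 Nucleotide exchange followed as fluorescence loss when BODIPY-GDP leaves Rap1B (480 nm excitation, 540 nm emission), read at 5 min intervals over 30 min. Reaction: 100 nM EPAC1, 250 nM RAP1B-BODIPY-GDP, 50 uM GDP; ATA and DMSO define normalization.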
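Further: plate controls were DMSO for no effect and ATA control for full effect; nearly all actives have a fitted effect of over 75% in size.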

| SMILES | activity change, negative = inhibition |
| --- | --- |
| FC(F)(F)c1ccccc1-c1cncnc1NCc1cccs1 | inactive: -1.64% |
| N[C@@H](Cc1cc(CP(=O)(O)O)cc(-c2ccccc2Cl)c1)C(=O)O | inactive: 5.93% |
| CC1(C)C(=O)C=C[C@]2(C)C1CC(=O)[C@]1(C)C2CC[C@@]2(C)C(c3ccoc3)OC(=O)C3O[C@@]321 (some centres undefined) | inactive: 6.15% |
| O=C(O)[C@H](O)[C@@H](O)[C@H](O[C@@H]1O[C@H](CO)[C@H](O)[C@H](O)[C@H]1O)[C@H](O)CO | inactive: 28.9% [at 75.8 µM] |
| COc1ccc(SCCN2CC[C@@H](O)CCC2=O)cc1 | inactive: 0.0769% |
| COc1ccc(C(=O)N2CCC3(CCCN(CC(C)C)C3)CC2)cc1 | inactive: 15.7% |
| COc1cc2nc(CCc3nc4cc(OC)c(OC)cc4[nH]3)[nH]c2cc1OC | inactive: 3.37% |
| COc1ccc(C(=O)O)c(O)c1OC | inactive: 7.63% |
| CC(C(O)c1ccccc1)N(C)CCOC(c1ccccc1)c1ccccc1 (centres undefined) | inactive: 24.4% |
| Cc1ccccc1-c1nc(-n2ccnc2)c2ccccc2n1 | inactive: 9.27% |
| COc1ccc(NC(=O)N2CC3(CCN(C(=O)c4c(C)noc4C)CC3)C2)cc1 | inactive: 16.1% |
| COc1ccccc1-c1ccc2ncnc(NC3CC3)c2c1 | inactive: 1.95% |
| Cc1cc(C)cc(OCC2CNC(=O)O2)c1 (centres undefined) | inactive: 19% |
| CC(=O)O[C@H]1C[C@@H]2CC[C@@H]3[C@H](CC[C@@]4(C)[C@H]3C[C@H]([N+]3(C)CCCCC3)[C@@H]4OC(C)=O)[C@@]2(C)C[C@@H]1N1CCCCC1 | inactive: 17.6% |
| Cc1ccc(O)c(-n2nc3ccccc3n2)c1 | inactive: -2.32% |
| Cc1c(C(=O)NCC2(N3CCOCC3)CCCCC2)cnn1-c1nccc(-c2ccccc2F)n1 | inactive: 16.5% |
| CC1CCCCN1CCCOC(=O)c1ccccc1 (centres undefined) | inactive: 17% |
| CC(=O)NCCNc1nc(-c2ccc(N(C)C)cc2)nc2ccccc12 | inactive: 9.19% |
| CCCCCCCC/C=C\CCCCCCCC(=O)NCCO | inactive |
| CN(C)c1ncc2nc(CCc3ccccc3)c(=O)n(C[C@H]3CCCO3)c2n1 | inactive: 15.8% |
| COCCn1c(=O)c(-c2cccc(C#N)c2)nc2cnc(N3CCN(C)CC3)nc21 | inactive: -4.6% |
| CN(C)c1ccc(-c2nc(N3CCNCC3)c3ccccc3n2)cc1 | inactive: -1.29% |
| C[C@@H](O)[C@H]1C(=O)N2C(C(=O)O)=C(S[C@@H]3CN[C@H](C(=O)N(C)C)C3)[C@H](C)[C@H]12 | inactive: 9.81% |
| CC(=O)NCC(=O)N[C@H](CCC(=O)O)C(=O)O (Ac-Gly-[dE]-OH) | inactive: 10.5% |

| SMILES | activity change, negative = inhibition |
| --- | --- |
| COc1cccc(Cn2c(=O)c(-c3cc(F)cc(F)c3)nc3cnc(N4CCN(C)CC4)nc32)c1 | inactive: 16.7% |
| COC(=O)C1CCN(Cc2ccc3c(c2)CN(C(=O)c2cc4cc(F)ccc4[nH]2)CCO3)CC1 | inactive: 1.77% |
| NC(N)=NCCC[C@H](NC(=O)[C@@H](N)Cc1ccc(O)cc1)C(=O)O | inactive: 22.3% [at 15.3 µM] |
| OC/C=C/c1ccc(O)c(O)c1 | inactive: 11.6% |
| O=c1cc(-c2cccc(O)c2)oc2ccc(O)cc12 | inactive: -18.3% |
| O=C(C[n+]1c(Cl)cc(Cl)c2ccccc21)c1ccccc1 | inactive: 21.5% |
| CC(=O)OC1CC2C(C)(C)C(=O)[C@@H]3OC3[C@@]2(C)C2CC[C@]3(C)C(=CC(=O)OC3c3ccoc3)[C@]12C (some centres undefined) | inactive: 12% |
| CCCOC(=O)c1ccccc1O | inactive: 27.3% |
| COC(=O)CCC(C)C1CCC2C3C(C[C@H](O)C12C)C1(C)CC[C@@H](O)CC1C[C@H]3O (some centres undefined) | inactive: -6.45% |
| COc1cccc(Nc2ncc3ncc(=O)n(CCc4ccccc4)c3n2)c1 | inactive: 9.37% |
| FC(F)(F)c1ccccc1-c1nccc(NCCN2CCOCC2)n1 | inactive: 4.91% |
| COc1ccc2[nH]cc(CCNc3nc(-c4ccc(C(=O)N(C)C)cc4)nc4ccccc34)c2c1 | inactive: -9.21% |
| O=C(NCCc1ccccn1)C1CC12CCN(C(=O)c1ccc(F)cc1Cl)CC2 (centres undefined) | inactive: 8.03% |
| C[C@@H]1O[C@@H](OC[C@H]2O[C@@H](Oc3c(-c4ccc(OCCO)c(OCCO)c4)oc4cc(OCCO)cc(O)c4c3=O)[C@H](O)[C@@H](O)[C@@H]2O)[C@H](O)[C@H](O)[C@H]1O | inactive: -3.98% |
| CCCCCCCCCCCCCCCC(=O)OC[C@H](COP(=O)([O-])OCC[N+](C)(C)C)OC(=O)CCCCCCCCCCCCCCC | inactive: -10.1% |
| O=c1c(CCc2ccccc2)nc2cnc(Oc3cccc(Cl)c3)nc2n1C[C@H]1CCCO1 | inactive: 14.5% |
| Cc1cc(C)cc(CN2CCOc3ccc(CN4CCC(O)(c5cccnc5)CC4)cc3C2)c1 | inactive: 21.5% |
| O=C(Nc1cccc(F)c1)N1CCC2(CC1)CCN(C(=O)c1csnn1)CC2 | inactive: 7.12% |
| C[C@]12C=CC(=O)C=C1CC[C@H]1[C@@H]3C[C@@H](O)[C@](O)(C(=O)CO)[C@@]3(C)C[C@H](O)[C@@]12F | inactive |
| COc1cc(/C=C/C(=O)N2CCCCC2=O)cc(OC)c1OC | inactive: -13.6% |
| O=c1c(-c2ccc(F)c(F)c2)nc2cncnc2n1-c1ccccc1 | inactive: 9.73% |
| CC1(C)O[C@@H]2C[C@H]3[C@@H]4CCC5=CC(=O)CC[C@]5(C)[C@@]4(F)[C@@H](O)C[C@]3(C)[C@]2(C(=O)CCl)O1 | inactive: 10.9% [at 75.8 µM] |
| Cc1nc2cnc(N3CCNCC3)nc2n(Cc2ccc(F)cc2)c1=O | inactive: 19.8% |
| O=C(Nc1ccc2c(c1)OCO2)O[C@@H]1C[C@H]2CCC(=O)N3CC[C@@H](C1)[C@@H]23 | inactive: 9.98% |

| SMILES | activity change, negative = inhibition |
| --- | --- |
| COc1cc(OC)cc(C(=O)NCC2Cc3cccc(-c4nc(C)cnc4C)c3O2)c1 (centres undefined) | inactive: 10.1% |
| COc1cc(=O)n2c(c1C(=O)NC(C)c1ccco1)CCN(Cc1ccccc1Cl)CC2 (centres undefined) | inactive: 1.82% |
| CS(=O)(=O)N1CCC2(CC1)CN(Cc1nccs1)C2 | inactive: 9.26% |
| NCCNc1cccc2ccccc12 | inactive: 3.57% |
| CNCCCC12CCC(c3ccccc31)c1ccccc12 | inactive |
| C/C=C/c1ccc(OC(C)[C@@H](O)c2ccc(O)c(OC)c2)c(OC)c1 (some centres undefined) | inactive: 1.75% |
| Cc1cccc(CNc2ncncc2-c2cccc(NS(C)(=O)=O)c2)c1 | inactive: -2.05% |
| Cc1ccccc1CN1CCc2nnc(C(C)NC(=O)c3cc(F)ccc3F)n2CC1 (centres undefined) | inactive: 7.65% |
| CC[C@H]1OC(=O)C[C@@H](O)[C@H](C)[C@@H](O[C@@H]2O[C@H](C)[C@@H](O)[C@H](N(C)C)[C@H]2O)[C@@H](CCN2C[C@H](C)C[C@H](C)C2)C[C@@H](C)C(=O)/C=C/C(C)=C/[C@@H]1CO[C@@H]1O[C@H](C)[C@@H](O)[C@@H](OC)[C@H]1OC | inactive: 13.9% |
| O=C1Cc2c([nH]c3ccc(Br)cc23)-c2ccccc2N1 | inactive |
| O=C(/C=C/c1ccccc1)c1cccs1 | inactive: -5.39% |
| Cn1ncc(S(=O)(=O)Cc2ccccc2)c(Br)c1=O | inactive: 20.7% [at 75.8 µM] |
| O=c1c(-c2ccccc2)nc2cnc(Oc3ccccc3)nc2n1C[C@H]1CCCO1 | inactive: 7.43% |
| Cc1nc2cc(NC(=O)[C@@H]3C[C@@H](Sc4ccccn4)CN3Cc3cccc(F)c3)ccc2s1 | inactive: -8.1% |
| COc1ccccc1-c1ccc2ncnc(NC3CCNCC3)c2c1 | inactive: 9.31% |
| COc1ccc(CN2Cc3ccccc3OC(c3ccccc3OC)C2)cc1O (centres undefined) | inactive: -10.4% |
| OC1(c2cccnc2)CCN(Cc2ccc3c(c2)CN(Cc2cccc(F)c2F)CCO3)CC1 | inactive: 13% |
| O=C(c1cccc(F)c1)N1CCC2(CC1)CCN(c1ccncc1)CC2 | inactive: 10.4% |
| COc1ccc2c(c1)c(CC(=O)N1CCOCC1)c(C)n2C(=O)c1ccc(Cl)cc1 | inactive |
| CC(=O)N[C@@H](C(=O)O)C(C)(C)SN=O | inactive: -0.696% |
| COc1cc(CN2CCC3(CCC(CNC(=O)c4ccco4)O3)CC2)ccc1O (centres undefined) | inactive: 11% |
| COc1ccc2[nH]cc(CCNc3ncncc3-c3c(C)noc3C)c2c1 | inactive: -4.56% |
| OC(c1cc(C(F)(F)F)nc2c(C(F)(F)F)cccc12)C1CCCCN1 (centres undefined) | inactive: 9.85% |
| COc1cc(=O)n2c(c1C(=O)NCc1nonc1C)CCN(Cc1c[nH]c3ccccc13)CC2 | inactive: 14.4% |

| SMILES | activity change, negative = inhibition |
| --- | --- |
| Cc1ccccc1-c1cc2c(c(OC3CCOC3)c1)OCCN(C(=O)Cn1cccn1)C2 (centres undefined) | inactive: -13.3% |
| Fc1ccc(Nc2ncncc2-c2ccccc2C(F)(F)F)cc1 | inactive: -6.63% |
| COC(=O)CC1C(C)(C)C2(O)OC34CC2C(=O)[C@@]1(C)C3CC[C@]1(C)C4=CC(=O)OC1c1ccoc1 (some centres undefined) | inactive: 2.14% |
| O=C(c1cccc(F)c1)N1CCC[C@@]2(CCN(c3ncccn3)C2)C1 | inactive: 8.38% |
| Cc1ccc(C(=O)Nc2cnn(-c3ccc(C(=O)NCc4nc(-c5ccccc5)n[nH]4)cc3)c2)c(C)c1 | inactive: -0.808% |
| CCN1CCN(C(=O)NC(C(=O)NC2C(=O)N3C2SC(C)(C)C3C(=O)O)c2ccccc2)C(=O)C1=O (centres undefined) | inactive: 14.2% |
| C[C@@H]1C[C@H]2[C@@H]3C[C@H](F)C4=CC(=O)C=C[C@]4(C)[C@@]3(Cl)[C@@H](O)C[C@]2(C)[C@H]1C(=O)COC(=O)C(C)(C)C | inactive: 4.11% |
| CN(C)c1ncc2ncc(=O)n(C3CC3)c2n1 | inactive: -5.25% |
| CCNc1ncc2nc(-c3cccs3)c(=O)n(C)c2n1 | inactive: 21.9% |
| CN1CCN(c2cc(-c3ccoc3)ncn2)CC1 | inactive: 1.96% |
| NC[C@@H](O)c1ccc(O)c(O)c1 | inactive: -27.2% |
| CC1(C)C[C@@H]1C(=O)N/C(=C\CCCCSC[C@H](N)C(=O)O)C(=O)O | inactive |
| Cc1cc(Cn2cnc3c2C[C@@H](C(=O)O)N(C(=O)C(c2ccccc2)c2ccccc2)C3)ccc1N | inactive: 1.43% [at 75.8 µM] |
| COc1ccc(C(=O)N2CCC3(CCCN(Cc4ccc(C#N)cc4)C3)CC2)cc1 | inactive: 4.6% |
| COc1ccc(C(=O)N2CCC3(CC2)CCN(c2ccccc2)CC3)cc1 | inactive: 15.5% |
| COC(=O)/C=C/c1ccccc1S(=O)(=O)NC(C)C | inactive: 2.89% |
| CCCCCCC(=O)OC1CC(C)(C)NC(C)(C)C1 | inactive: -0.668% [at 75.8 µM] |
| O=C(/C=C/c1ccc2c(c1)OCO2)c1cccs1 | inactive: -5.28% |
| O=C1c2ccccc2CC[C@H]1CNCCc1ccc(O)cc1 | inactive: -7.03% |
| Oc1cc2c(cc1O)CN(C(=S)NCCc1ccc(Cl)cc1)CCC2 | inactive |
| COCCn1c(=O)cnc2cnc(Oc3ccccc3)nc21 | inactive: 21.3% |
| CCCCCC(=O)O[C@]1(C(C)=O)CC[C@H]2[C@@H]3CCC4=CC(=O)CC[C@]4(C)[C@H]3CC[C@@]21C | inactive: 11% |
